# Data: PubChem BioAssay (Tox21)
# Where “and” joins values, the source holds several entries; their conditions need not be identical. Equal values may be shown once. The shares of active, inactive and inconclusive entries below differ from those in the screen. A potency beside an inconclusive call is a rough fit, not a confirmed value. Some compounds were tested as several samples or in several runs, with calls that do not always agree. Calls of active or inactive are those of the source. Calls follow the shape of the dose curve; as a rule, active = well fitted curve in the direction sought with a large enough effect in the repeat runs; inconclusive = weak or mixed curves; inactive = no such curve, though single readings can be large; an effect the other way counts as inactive or inconclusive.
# Assays:
# [1] = A CellTox Green Cytotoxicity Assay to monitor cytotoxicity in HepG2 cells - 0 hour (AID 1224882); also: nearly all actives have a fitted effect of over 35% in size
# Method in brief: (§1)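 HepG2 cells, 600/well, preincubated 5 h with CellTox Green dye, then exposed to Tox21 compounds in DMSO at 37 C for up to 40 h. Dead-cell DNA fluorescence read at the indicated time point.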
# [2] = A CellTox Green Cytotoxicity Assay to monitor cytotoxicity in HepG2 cells - 32 hour (AID 1224883); also: nearly all actives have a fitted effect of over 50% in size
# Method in brief: as §1
# [3] = qHTS RealTime-Glo MT Cell Viability Assay in HepG2 cells - 16 hour (AID 1224885); also: nearly all actives have a fitted effect of over 50% in size
# Method in brief: (§2)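 Cell number in HepG2 cultures estimated from NanoLuc luminescence generated by metabolic reduction of a prosubstrate by living cells. The homogeneous, nonlytic format allowed repeated reads at 0, 8, 16, 24, 32 and 40 h of compound exposure.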
# [4] = qHTS RealTime-Glo MT Cell Viability Assay in HEK293 cells - 24 hour (AID 1224886); also: nearly all actives have a fitted effect of over 50% in size
# Method in brief: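 Homogeneous bioluminescent viability format in HEK293 cells (600 cells/well). Following 5 h at 37 C/5% CO2, 23 nL compound was pintooled; the signal was measured repeatedly during 40 h incubation.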
# [5] = A CellTox Green Cytotoxicity Assay to monitor cytotoxicity in HepG2 cells - 8 hour (AID 1224890); also: nearly all actives have a fitted effect of over 45% in size
# Method in brief: as §1
# [6] = A CellTox Green Cytotoxicity Assay to monitor cytotoxicity in HEK293 cells - 8 hour (AID 1224884); also: nearly all actives have a fitted effect of over 35% in size
# Method in brief: (§3)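 HEK293 cells, 600/well, were preincubated 5 hours and then exposed to compounds at 37 C for up to 40 hours. A cell-impermeant cyanine dye staining dead-cell DNA was read by fluorescence at 0, 8, 16, 24, 32 and 40 h time points.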
# [7] = qHTS assay to identify small molecule antagonists of the estrogen receptor alpha (ER-alpha) signaling pathway using the BG1 cell line in the presence of 0.1 nM 17-beta-estradiol - cell viability counter screen (AID 1259241); also: nearly all actives have a fitted effect of over 40% in size
# Method in brief: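 CellTiter-Fluor read (30 min, 37C) on ER-alpha/ERE-luc VM7Luc4E2 cells; 22 hr compound treatment; agonist 0.1 nM E2 final; same-well multiplex.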
# [8] = qHTS RealTime-Glo MT Cell Viability Assay in HEK293 cells - 8 hour (AID 1224887); also: nearly all actives have a fitted effect of over 50% in size
# Method in brief: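 600 cells/well were plated with the nonlytic NanoLuc/prosubstrate reagent, pre-incubated 5 h, then given 23 nL of compound in DMSO. Incubation at 37 C for 40 h, with luminescence from viable-cell-reduced substrate read repeatedly from 0 h.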
# [9] = A CellTox Green Cytotoxicity Assay to monitor cytotoxicity in HEK293 cells - 16 hour (AID 1224888); also: nearly all actives have a fitted effect of over 35% in size
# Method in brief: as §3
# [10] = qHTS RealTime-Glo MT Cell Viability Assay in HepG2 cells - 0 hour (AID 1224889); also: nearly all actives have a fitted effect of over 50% in size
# Method in brief: as §2
# Potency is read from the fitted curve at half-maximal effect; tags tell the direction and shape of the fitted curve.
smiles,measurement,setting,value
CN(C)CCOc1ccccc1Cc1ccccc1,Potency,[1],"inconclusive: 26.8 µM [activator, single point]"
same,Potency,[2],"inconclusive: 26.8 µM [activator, single point]"
same,Potency,[3],inactive
same,Potency,[4],inactive
same,Potency,[5],"inconclusive: 26.8 µM [activator, single point]"
COC(=O)c1cccc(C(=O)OC)c1,Potency,[1],active: 38.9 µM
same,Potency,[2],active: 24.5 µM
CC(=O)CCC(C)C,Potency,[1],active: 38.9 µM
same,Potency,[6],active: 38.9 µM
same,Potency,[4],inactive
CCCCCCCCOc1ccccc1C(=O)Nc1ccc(C(=O)OCC[N+](C)(CC)CC)cc1,Potency,[1],"inconclusive: 26.8 µM [activator, single point]"
same,Potency,[3],"inconclusive: 23.9 µM [cytotoxic, partial curve]"
same,Potency,[4],"inconclusive: 19 µM [cytotoxic, partial curve]"
same,Potency,[5],active: 26.8 µM
O=[N+]([O-])c1ccc(O)c2ncccc12,Potency,[1],"inconclusive: 0.0849 µM [activator, partial curve, poor fit]"
same,Potency,[2],"inconclusive: 6.74 µM [activator, full curve, poor fit]"
same,Potency,[6],inactive
same,Potency,[4],"inconclusive: 15.1 µM [cytotoxic, single point]"
same,Potency,[5],"inconclusive: 0.0952 µM [activator, partial curve, poor fit]"
same,Potency,[7],"inconclusive: 15 µM [cytotoxic, partial curve]"
C=C(C)C(=O)OCC(CC)(COC(=O)C(=C)C)COC(=O)C(=C)C,Potency,[1],active: 42.9 µM
same,Potency,[2],active: 42.9 µM
same,Potency,[8],"inconclusive: 24.9 µM [cytotoxic, full curve]"
same,Potency,[5],active: 42.9 µM
COc1cccc2c1C(=O)c1c(O)c3c(c(O)c1C2=O)C[C@@](O)(C(=O)CO)C[C@@H]3O[C@H]1C[C@H](N)[C@H](O[C@@H]2CCCCO2)[C@H](C)O1,Potency,[1],"inconclusive: 21.3 µM [activator, partial curve, poor fit]"
same,Potency,[2],active: 1.69 µM
same,Potency,[3],"inconclusive: 8.49 µM [cytotoxic, partial curve]"
C=CC(=O)NC(C)(C)CS(=O)(=O)O,Potency,[1],active: 27.5 µM
same,Potency,[6],active: 43.6 µM
same,Potency,[5],active: 38.9 µM
CCCCCCC(C)(C)C(=O)O,Potency,[1],inactive
same,Potency,[6],"inconclusive: 54.9 µM [activator, single point]"
Cc1cc(=O)c2c(O)c3c(O)cc(=O)c4c3c3c(cc(O)c1c23)C(C)(C)C=4O,Potency,[1],active: 4.65 µM
same,Potency,[6],active: 7.37 µM
same,Potency,[4],"inconclusive: 1.47 µM [cytotoxic, full curve]"
same,Potency,[9],active: 7.37 µM
same,Potency,[5],active: 4.65 µM
same,Potency,[7],"inconclusive: 2.91 µM [cytotoxic, full curve]"
Oc1cc2c(cc1O)[C@H]1c3ccc(O)c(O)c3OC[C@@]1(O)C2,Potency,[3],active: 44.2 µM
same,Potency,[4],inactive
same,Potency,[9],active: 49.6 µM
O=[Se](O)O,Potency,[4],"inconclusive: 17.4 µM [cytotoxic, full curve]"
O=C1CC2CC1C1CCCC21 (centres undefined),Potency,[2],inactive
same,Potency,[6],"inconclusive: 30.9 µM [activator, partial curve, poor fit]"
same,Potency,[9],"inconclusive: 54.9 µM [activator, single point]"
CCCCCCCC[P+](CCCCCCCC)(CCCCCCCC)CCCCCCCC,Potency,[2],active: 10.9 µM
same,Potency,[6],active: 10.9 µM
same,Potency,[3],active: 17.3 µM
same,Potency,[9],active: 10.9 µM
same,Potency,[10],"inconclusive: 19.4 µM [cytotoxic, full curve]"
Nc1ccc(N=Nc2ccccc2)c(N)n1,Potency,[2],"inconclusive: 26.8 µM [activator, single point]"
same,Potency,[3],"inconclusive: 38.9 µM [cytotoxic, partial curve, poor fit]"
same,Potency,[4],"active: 39.1 µM and active: 24.5 µM and inconclusive: 23.9 µM [cytotoxic, partial curve]"
same,Potency,[8],"inconclusive: 31.1 µM [cytotoxic, partial curve, poor fit] and inconclusive: 9.77 µM [cytotoxic, partial curve] and inconclusive: 16.9 µM [cytotoxic, partial curve, poor fit]"
same,Potency,[7],"inconclusive: 3.35 µM [cytotoxic, full curve]"
CCC(C)(C)C(=O)O[C@H]1C[C@@H](C)C=C2C=C[C@H](C)[C@H](CC[C@@H]3C[C@@H](O)CC(=O)O3)[C@H]21,Potency,[2],active: 38.9 µM and active: 9.52 µM
same,Potency,[6],"inconclusive: 30.1 µM [activator, single point]"
same,Potency,[9],"inconclusive: 26.8 µM [activator, single point]"
C[C@]12CC[C@H]3C(=CCc4cc(O)ccc43)[C@@H]1CCC2=O,Potency,[2],"inconclusive: 38.9 µM [activator, partial curve]"
same,Potency,[3],"inconclusive: 49 µM [cytotoxic, partial curve, poor fit]"
Cc1nc(Nc2ncc(C(=O)Nc3c(C)cccc3Cl)s2)cc(N2CCN(CCO)CC2)n1,Potency,[2],active: 26.8 µM
same,Potency,[3],"inconclusive: 26.8 µM [cytotoxic, single point]"
same,Potency,[4],active: 30.1 µM
same,Potency,[8],"inconclusive: 23.9 µM [cytotoxic, single point]"
same,Potency,[10],active: 23.9 µM
same,Potency,[7],"inconclusive: 1.5 µM [cytotoxic, full curve]"
CS(=O)(=O)c1ccc(-c2cn3ccccc3n2)cc1,Potency,[2],"inconclusive: 26.8 µM [activator, partial curve, poor fit]"
same,Potency,[3],"inconclusive: 23.9 µM [cytotoxic, partial curve]"
same,Potency,[4],"inconclusive: 19 µM [cytotoxic, partial curve]"
same,Potency,[8],"inconclusive: 16.9 µM [cytotoxic, partial curve, poor fit]"
same,Potency,[5],inactive
CC(=O)[C@H]1CC[C@H]2[C@@H]3CCC4=CC(=O)CC[C@]4(C)[C@H]3CC[C@]12C,Potency,[2],"inconclusive: 54.6 µM [activator, single point]"
same,Potency,[6],"inconclusive: 54.6 µM [activator, single point]"
same,Potency,[3],"inconclusive: 48.7 µM [cytotoxic, partial curve] and inconclusive: 24.5 µM [cytotoxic, partial curve]"
same,Potency,[8],"inconclusive: 19.5 µM [cytotoxic, partial curve]"
same,Potency,[10],active: 6.88 µM and active: 5.49 µM
CN1CCc2cccc3c2[C@H]1Cc1ccc(O)c(O)c1-3,Potency,[2],"inconclusive: 18.3 µM [activator, single point]"
same,Potency,[3],active: 49.5 µM and active: 18.3 µM and active: 23.9 µM
same,Potency,[4],active: 14 µM and active: 8.17 µM and active: 23.9 µM
same,Potency,[8],"active: 24.8 µM and active: 14.5 µM and inconclusive: 26.8 µM [cytotoxic, single point]"
same,Potency,[9],"inconclusive: 44.1 µM [activator, single point]"
same,Potency,[7],"active: 49.1 µM and active: 20.4 µM and inconclusive: 23.7 µM [cytotoxic, partial curve]"
c1cnc2c(n1)CCCC2,Potency,[2],active: 43.6 µM
same,Potency,[6],active: 43.6 µM
same,Potency,[8],inactive
Cc1ccc(N)cc1O,Potency,[2],"inconclusive: 4.9 µM [activator, full curve, poor fit]"
same,Potency,[6],"inconclusive: 61.6 µM [activator, single point]"
same,Potency,[4],"inconclusive: 17.4 µM [rising, full curve]"
same,Potency,[9],"inconclusive: 61.6 µM [activator, partial curve, poor fit]"
same,Potency,[7],active: 61.1 µM
Nc1ccc(Oc2ccc(N)c(N)c2)cc1,Potency,[2],"inconclusive: 54.9 µM [activator, single point]"
same,Potency,[3],"inconclusive: 38.9 µM [cytotoxic, partial curve, poor fit]"
same,Potency,[4],"inconclusive: 54.9 µM [cytotoxic, single point]"
same,Potency,[8],"inconclusive: 43.6 µM [cytotoxic, partial curve]"
same,Potency,[10],"inconclusive: 38.9 µM [cytotoxic, partial curve]"
CCCCCCCCCCCCCC[n+]1ccccc1,Potency,[2],active: 11 µM
same,Potency,[6],active: 54.9 µM
same,Potency,[8],active: 54.9 µM
same,Potency,[9],active: 54.9 µM
same,Potency,[5],active: 49 µM
same,Potency,[7],"inconclusive: 77 µM [cytotoxic, single point]"
O=c1cc(-c2ccccc2)oc2cc(O)cc(O)c12,Potency,[2],"inconclusive: 54.9 µM [activator, single point]"
same,Potency,[3],"inconclusive: 49 µM [cytotoxic, partial curve, poor fit]"
same,Potency,[4],"inconclusive: 21.9 µM [cytotoxic, partial curve]"
same,Potency,[8],"inconclusive: 24.5 µM [cytotoxic, partial curve, poor fit]"
same,Potency,[10],"inconclusive: 43.6 µM [cytotoxic, partial curve]"
same,Potency,[7],"inconclusive: 30.6 µM [cytotoxic, partial curve]"
CN1C[C@H](C(=O)N[C@]2(C)O[C@@]3(O)[C@@H]4CCCN4C(=O)[C@H](Cc4ccccc4)N3C2=O)C[C@@H]2c3cccc4[nH]cc(c34)C[C@H]21,Potency,[2],"inconclusive: 23.9 µM [activator, partial curve, poor fit]"
same,Potency,[3],"inconclusive: 26.8 µM [cytotoxic, single point]"
same,Potency,[4],active: 21.3 µM
same,Potency,[8],active: 23.9 µM
same,Potency,[7],"inconclusive: 2.66 µM [cytotoxic, full curve]"
CN1C(=O)N(c2ccccc2Br)Cc2cnc(Nc3ccc4c(c3)OCC(CO)O4)nc21 (centres undefined),Potency,[2],"inconclusive: 5.49 µM [activator, single point]"
same,Potency,[3],"inconclusive: 24.5 µM [cytotoxic, partial curve]"
same,Potency,[4],active: 6.92 µM
same,Potency,[8],active: 17.4 µM
same,Potency,[10],"inconclusive: 19.5 µM [cytotoxic, partial curve]"
same,Potency,[5],inactive
same,Potency,[7],"inconclusive: 68.6 µM [cytotoxic, partial curve, poor fit]"
